Among all 220,000 compounds or so, about 16,000 (7.3%) were called active. Inconclusive results, whose numbers are uncertain, are shown with a selection of clear calls. Calls follow the shape of the dose curve; as a rule, active = well fitted inhibition curve with a large enough effect (not every such curve was filed as active); inconclusive = small, poorly fitted or top-dose-only effect, or another doubt; inactive = no such curve, though single readings can be large or run the other way. No potency is given beside an inconclusive call; the fits are too rough.
Each compound was assayed against Aldehyde dehydrogenase 1A1 (Homo sapiens) (UniProt P00352) (assay: qHTS Assay for Inhibitors of Aldehyde Dehydrogenase 1 (ALDH1A1)). Settings: Purified ALDH1A1, NADH fluorescence, propionaldehyde substrate; series mostly up to 75.3 µM.
UniProt P00352, sequence (P00352 whole entry, looked up): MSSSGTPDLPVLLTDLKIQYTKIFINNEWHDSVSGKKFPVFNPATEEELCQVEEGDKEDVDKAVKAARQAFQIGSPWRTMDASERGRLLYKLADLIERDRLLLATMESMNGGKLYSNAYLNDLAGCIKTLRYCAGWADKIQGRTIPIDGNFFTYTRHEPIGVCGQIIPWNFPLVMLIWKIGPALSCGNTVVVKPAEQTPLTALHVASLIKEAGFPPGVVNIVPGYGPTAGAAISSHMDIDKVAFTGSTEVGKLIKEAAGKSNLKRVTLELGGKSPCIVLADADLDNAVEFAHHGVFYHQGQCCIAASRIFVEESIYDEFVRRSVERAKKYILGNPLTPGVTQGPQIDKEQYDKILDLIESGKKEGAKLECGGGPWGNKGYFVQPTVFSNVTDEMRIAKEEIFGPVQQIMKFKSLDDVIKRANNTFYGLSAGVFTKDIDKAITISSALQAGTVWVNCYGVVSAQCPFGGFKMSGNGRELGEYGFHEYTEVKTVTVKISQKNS

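For activity, negative = inhibition in this document: plate controls were no enzyme wells and a reference inhibitor.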
Potency is read from the fitted curve at half-maximal effect; tags tell the direction and shape of the fitted curve.

Structure (SMILES) | Potency | activity, negative = inhibition
CC(C)C(c1nnnn1Cc1ccc2c(c1)OCO2)N1CCN(C)CC1 (stereo unspecified) | inactive | 
Cn1c(=O)c2c(nc(N3CCN(Cc4ccccc4)CC3)n2CCCc2ccccc2)n(C)c1=O | active: 7.94 µM | 
O=C(NCCN1CCc2ccccc2C1)C1CC(=O)N(C2CCCC2)C1 (stereo unspecified) | active: 35.5 µM | 
N#CCCCSc1nnc(-c2ccccn2)o1 | inconclusive [inhibitor, single point] | 
CCOC(=O)Nc1sc(=S)n(C)c1C | active: 18.9 µM | 
COc1ccc(S(=O)(=O)Nc2ccc3c(c2)OCO3)cc1 | inconclusive [inhibitor, partial curve] | 
CC(C)CCN1C(=O)c2ccc(C(=O)NCC3CCCO3)cc2C1=O (stereo unspecified) | active: 4.47 µM | 
Cc1ccsc1/C=C1\CCc2ccccc2C1=O | inconclusive [inhibitor, single point] | 
O=C(NC1(N2CCOCC2)CC1)c1ccc(Cl)cc1 | inactive | 
O=C(NCCN1C(=O)S/C(=C\c2ccc(Cl)c(Cl)c2)C1=O)c1ccc2c(c1)C(=O)N(Cc1ccncc1)C2=O | inactive | 
COc1cc(OC)c(C2=NOC(C(=O)N3CCCc4ccccc43)C2)cc1Cl (stereo unspecified) | inconclusive [inhibitor, single point] | 
Cc1ccccc1-c1ccc2ncnc(N3CCOCC3)c2c1 | active: 22.4 µM | 
Cc1ccc(SCCNC(=O)/C=C/c2ccccc2Cl)cc1 | active: 12.6 µM | 
COc1ccc(C(=O)Nc2cccc(C(=O)NCc3ccccc3)c2)cc1 | inconclusive [inhibitor, single point] | 
O=[N+]([O-])c1cccc(NC(=S)NCc2ccncc2)c1 | active: 9.46 µM | 
Cc1oc2ccc(O)c(CN3CCOCC3)c2c1C(=O)c1ccc(Cl)cc1 | inconclusive [inhibitor, partial curve, poor fit] | 
COc1cc(C(c2nnnn2C2CCCC2)N2CCN(C)CC2)cc(OC)c1OC (stereo unspecified) | inconclusive [inhibitor, single point] | 
CCOc1ccccc1NC(=O)/C=C/C(N)=O | inactive | 
CNC(=O)c1cc2c(ccc3ccccc32)oc1=N | inconclusive [inhibitor, partial curve] | 
O=C(NNC(=O)c1cc([N+](=O)[O-])ccc1Cl)c1cccs1 | inactive | 
COc1ccccc1CNC(=O)c1ccc(-c2ccccc2Cl)o1 | active: 14.1 µM | 
Cc1ccccc1/C(N)=N/OC(=O)N1c2ccccc2Sc2ccccc21 | inactive | 
O=C(CCn1nnc(-c2cccs2)n1)N1CCc2ccccc2C1 | active: 28.2 µM | 
COc1ccc(NC(=O)CCCn2c(=O)c3sccc3n(Cc3cccc(C)c3)c2=O)cc1 | active: 2 µM | 
CN(C)S(=O)(=O)c1cccc(NC(=S)NCc2ccc3c(c2)OCO3)c1 | inconclusive [inhibitor, partial curve] | 
CCOc1ccc(C2N(c3ccc(F)cc3)C(=O)C3CCCN32)cc1 (stereo unspecified) | inconclusive [inhibitor, single point] | 

Structure (SMILES) | Potency | activity, negative = inhibition
CCCN1C(=O)/C(=C/c2ccc(C)s2)NC1=S | active: 8.91 µM | 
CC1(C)CC(/C=C/c2ccccc2)=Nc2ccccc2N1 | inactive | 
CC(NC(=O)c1ccco1)C(c1cccs1)N1CCOCC1 (stereo unspecified) | inconclusive [inhibitor, single point] | 
CC(=O)Nc1sc(C)c(C)c1C(=O)OC1CCOC1=O (stereo unspecified) | inconclusive [inhibitor, single point] | 
O=C1C2C3C=CC(C3)C2C(=O)N1c1nc2ccccc2s1 (stereo unspecified) | inconclusive [inhibitor, partial curve] | 
CCN(C(=S)NCCOC)c1cccc2ccccc12 | inconclusive [inhibitor, single point] | 
COc1cc(OC)cc(C(=O)N[C@H](C(=O)OCC(=O)c2ccc(F)cc2)C(C)C)c1 | inconclusive [inhibitor, single point] | 
CCc1ccc(NC(=O)CSc2nnc(SCC(=O)Nc3ccc(CC)cc3)n2N)cc1 | inactive | 
CCOc1nc(C#N)nc(N2CCCCC2)n1 | inconclusive [inhibitor, full curve, poor fit] | 
CCn1c2ccccc2c2cc(NS(=O)(=O)c3ccccc3C)ccc21 | inactive | 
COc1ccc(/C=C/C(=O)CC(=O)/C=C/c2cccc(O)c2OC)cc1O | inconclusive [inhibitor, partial curve] | 
FC(F)(F)c1ccccc1Nc1nccs1 | inconclusive [inhibitor, single point] | 
CC(=O)c1ccc(N2C(=O)[C@@H]3C(C(=O)CCN4C(=O)c5ccccc5C4=O)=NN[C@@H]3C2=O)cc1 | inactive | 
C/C(CC(=O)Nc1ccc(C)c(Cl)c1)=N\NC(=O)c1ccncc1 | inconclusive [inhibitor, full curve, poor fit] | 
COc1ccc(CNC(=O)COC(=O)c2ccccn2)cc1 | active: 25.1 µM | 
COc1ccc(Nc2nc(NCc3ccco3)nc(N/N=C/c3ccccc3)n2)cc1 | inconclusive [inhibitor, partial curve] | 
CC1CCN(C(=O)c2ccc(-n3cnnn3)cc2)CC1 | inconclusive [inhibitor, partial curve] | 
CC1CCN(S(=O)(=O)c2ccc(NC(=O)Cn3nnc(-c4ccccc4F)n3)cc2)CC1 | inconclusive [inhibitor, single point] | 
COc1cc(C2Nc3ccccc3C(=O)N2c2ccccc2)ccc1O (stereo unspecified) | inconclusive [inhibitor, partial curve] | 
Cc1cc(=O)[nH]c(SCC2COC3(CCCCC3)O2)n1 (stereo unspecified) | inconclusive [inhibitor, single point] | 
Nc1ccc(S(=O)(=O)NC2=NCCCCC2)cc1N | inactive | 
CCOC(=O)N1CCN(CC(O)c2ccc3cc[nH]c3c2)CC1 (stereo unspecified) | inactive | 
CC(C)C(=O)NC(=S)Nc1sc2c(c1C(N)=O)CCCC2 | active: 7.08 µM | 
NC(Cc1cccc(-c2ccccc2CP(=O)(O)O)c1)C(=O)O (stereo unspecified) | inactive | 
O=C(CSc1nnnn1C1CCCC1)c1ccc2c(c1)OCCO2 | active: 3.16 µM | 
O=C(Nc1ccc(N2CCN(C(=O)c3ccc(Cl)cc3)CC2)cc1)c1ccc2c(c1)OCCO2 | inconclusive [inhibitor, single point] | 

Structure (SMILES) | Potency | activity, negative = inhibition
CC1(C)C(c2cccs2)=[N+]([O-])C2(CCCCC2=O)N1O (stereo unspecified) | active: 22.4 µM | 
CC(=O)c1cccc(NC(=O)C(=O)c2cn(CC(=O)N3CCCCC3)c3ccccc23)c1 | inconclusive [inhibitor, single point] | 
CC(C)(C)OC(=O)[C@H]1[C@H](c2ccc([N+](=O)[O-])cc2)C2(C(=O)c3ccccc3C2=O)C2c3ccccc3C=NN21 (stereo partly specified) | inconclusive [inhibitor, single point] | 
Clc1cc2c(cc1/C=N/Nc1nc(N3CCOCC3)nc(N3CCOCC3)n1)OCO2 | inconclusive [inhibitor, partial curve] | 
CCCn1cc(C(CC(=O)O)C(=O)O)c2ccccc21 (stereo unspecified) | inconclusive [inhibitor, partial curve] | 
O=C(NCCCN1CCOCC1)C1(c2ccccc2)CCCC1 | inactive | 
O=C(Cc1noc2ccccc12)NNC(=S)Nc1ccccc1 | inconclusive [inhibitor, single point] | 
COc1ccc(CCN=C(N)NS(=O)(=O)c2ccc(OC)cc2)cc1 | inconclusive [inhibitor, partial curve] | 
Cc1c(O)c2cccnc2[nH]c1=O | inactive | 
O=C1C=C(Nc2cccc(Cl)c2)CC(c2ccco2)C1 (stereo unspecified) | inconclusive [inhibitor, single point] | 
CCCCC(=O)NCc1ccc2c(c1)cc(C)n2C | inactive | 
Cc1cc(C)n(C(=O)CCNC(=O)c2ccccc2Cl)n1 | inconclusive [inhibitor, single point] | 
COc1cccc(NCCC(=O)c2cccc([N+](=O)[O-])c2)c1 | active: 0.224 µM | 
Cc1sc(NC(=O)c2ccco2)nc1-c1ccc2c(c1)CC(C)N2C(=O)C1CC1 (stereo unspecified) | inconclusive [inhibitor, single point] | 
COC(=O)c1cccc(NC(=O)NC23CC4CC(CC(C4)C2)C3)c1 | active: 31.6 µM | 
Cc1nn(-c2ccccc2)c2nc(-c3ccncc3)cc(C(=O)NCc3ccco3)c12 | inconclusive [inhibitor, single point] | 
NCCSC[C@H](N)C(=O)O |  | inactive: 2.97% [at 13.5 µM]
COC(=O)c1sc(=S)n(-c2ccccc2)c1N | active: 7.08 µM | 
Cc1cccc(NC(=S)N2CCn3cccc3C2c2cccnc2)c1 (stereo unspecified) | inconclusive [inhibitor, single point] | 
CC(=O)c1c(-c2ccc(C)cc2)nc2c3ccccc3ccn12 | inconclusive [inhibitor, single point] | 
CC(C)(C)c1ccc(OCC(=O)NNC(=S)NC(=O)c2ccccc2[N+](=O)[O-])c(Br)c1 | inconclusive [inhibitor, partial curve] | 
Cc1cc(C)cc(C(=O)N(CCc2ccccc2)C2=CC3CCC(C2)N3C)c1 (stereo unspecified) | inactive | 
O=S(=O)(c1ccc2c(c1)OCCO2)N1CCN(c2cccc(Cl)c2)CC1 | inconclusive [inhibitor, single point] | 
COc1ccc(-c2nnc3ccc(SC(C(C)=O)C(C)=O)nn23)cc1OC | inactive | 

— PubChem BioAssay AID1030 (National Center for Advancing Translational Sciences (NCATS), 2008)
